# Data: PubChem BioAssay (NCI)
#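 48-hour exposure; five concentrations; linearly interpolated endpoints. Abbreviation: GI50, concentration required for 50% inhibition of growth. TGI is the concentration that stops growth completely.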
# Test system: NCI-H322M lung
# Assay: NCI-60 cell line screen, 48 h
Compound,TGI,GI50
COC(=O)[C@]1(NC(=O)c2ccccc2)C[C@H]1C=O,> 100 µM,
COc1cc(/C=C/C(=O)c2cccc(-n3cc(-c4ccc(Cl)cc4)[nH]c3=O)c2)cc(OC)c1OC,> 100 µM,12.9 µM
COc1cc2c(c(O)c1OC)C(=O)[C@@H]1CCC(=O)N1C2,> 100 µM,
Cc1cc(C)nc(NS(=O)(=O)c2ccc(Nc3c4ccccc4nc4c(C(=O)Nc5ccc(S(=O)(=O)N=C(N)N)cc5)cccc34)cc2)n1,> 100 µM,
C=CNC(=O)NC(=O)CSc1nnc(-c2ccccc2NC(=O)C(F)(F)F)c(=O)[nH]1,> 100 µM,
Cc1nc(C(=O)O)c2ccccc2n1,> 100 µM,
c1ccc2c(c1)Nc1ccncc1S2,83.8 µM,19.1 µM
Cc1cc(C#Cc2ccc(C(C)(C)C)cc2)ccc1-n1c(/C=C/c2ccc(O)cc2O)nc2ccccc2c1=O,19.6 µM,6.09 µM
O=C1CSC2(CC(/C=C/c3cccc([N+](=O)[O-])c3)=NN2c2cccc(S(=O)(=O)O)c2)N1c1nc2ccccc2s1 (stereo not drawn),> 100 µM,
COc1ncnc(NS(=O)(=O)c2ccc(N=C3C(=O)N(CN4CCN(c5c(F)cc6c(=O)c(C(=O)O)cn(C7CC7)c6c5OC)CC4C)c4ccc(Br)cc43)cc2)c1OC (stereo not drawn),25.1 µM,4.77 µM
CCOC(=O)c1nc2cc(C(F)(F)F)ccc2nc1Nc1ccc(OC)cc1,> 100 µM,
Cn1cc(C2=C(c3cccc(OC[C@@H](O)CO)c3)C(=O)NC2=O)c2ccccc21,> 25 µM,> 25 µM
CC(=O)NCc1cccc(C#Cc2cncnc2Nc2ccc(OCc3cccc(F)c3)c(Cl)c2)c1,> 21.2 µM,3.57 µM
Clc1cc(Cl)cc(N=C/C=C/Nc2cc(Cl)cc(Cl)c2)c1,64.9 µM,
O=C(O)/C=C/c1nc2ccccc2c(=O)o1,> 100 µM,
Cc1cc[n+]2c(c1)-c1cc(C)cc[n+]1CC2,> 100 µM,
CC(N)Cc1ccc(Cl)c(Cl)c1 (stereo not drawn),97.5 µM,
CCOC(=O)N1N=C(/C(C)=N/OC)C(C)S1=O (stereo not drawn),> 100 µM,
CC(C)=CCN1CC(C)C(=O)Nc2ccccc21 (stereo not drawn),> 100 µM,
CN(CCNCc1ccccn1)CCNCc1ccccn1,4.28 µM,1.79 µM
Cc1ccc(-c2nc([P+](c3ccccc3)(c3ccccc3)c3ccccc3)c(S(=O)(=O)c3ccc(C)cc3)o2)cc1,12.6 µM,3.18 µM
CC(C)(O)CNc1nc(Nc2ccnc(C(F)(F)F)c2)nc(-c2cccc(C(F)(F)F)n2)n1,69.1 µM,23 µM
O=C1Cc2c([nH]c3ccc(Br)cc23)-c2cc(O)c(O)cc2N1,> 100 µM,
Cc1ccc(-c2nc(N/N=C/C=C/c3ccccc3)c3ccccc3n2)cc1,64 µM,
CCOP1(=O)C=C(C)C(Cl)=C(C)C1 (stereo not drawn),> 100 µM,

Compound,TGI,GI50
COc1cc2c(cc1OC)-c1ncc3c(OC)c(OC)c(OC)cc3c1C2,58 µM,3.59 µM
COc1ccc2c(c1)c1c(n2CCN(C)C)-c2ccccc2CC1,29.9 µM,
NNC(=O)c1c(-c2cccnc2)cnc2ccccc12,> 100 µM,
O=C(CC1SC(=Nc2ccccc2Cl)NC1=O)Nc1ccc(Cl)cc1Cl (stereo not drawn),> 100 µM,
Cc1ccc(NC(=O)CC2C(=O)Nc3ccccc3S2(=O)=O)c(C)c1 (stereo not drawn),68.4 µM,
O=C(c1nc2ccccc2[nH]c1=O)C(O)c1ccccc1 (stereo not drawn),> 100 µM,
C/C(=C\c1cnc(C)s1)[C@@H]1C[C@@H]2O[C@@H]2CCC[C@H](C)[C@H](O)[C@@H](C)C(=O)C(C)(C)[C@@H](O)CC(=O)O1,> 100 µM,< 0.01 µM
C/C(=C\CBr)CCC(Br)C(C)(C)Cl (stereo not drawn),> 100 µM,
COc1ccc(Oc2cccc(C3C4C(=O)N(c5ccc(C)c(Cl)c5)C(=O)C4ON3C(C(N)=O)c3ccccc3)c2)cc1 (stereo not drawn),> 50 µM,
Nc1ncnc2oc(C3OC(COC(=O)c4ccccc4)C(OC(=O)c4ccccc4)C3OC(=O)c3ccccc3)nc12 (stereo not drawn),> 100 µM,
NS(=O)(=O)c1nnc(NS(=O)(=O)C(F)(F)F)s1,> 100 µM,
N[C@H](C(=O)O)[C@@H]1CC(Br)=NO1,> 100 µM,
Nc1[nH]c(=O)nc2c1cnn2C1CCCCO1 (stereo not drawn),> 100 µM,
COC(=O)CCCCC(=O)c1c(C)[nH]c(/C=C2\N=C(c3ccc[nH]3)C=C2OC)c1C,12 µM,3.23 µM
COC(=O)[C@H]1CCCN1C(=O)[C@H]1CCCN1C(=O)[C@@H](Cc1c[nH]c2ccccc12)NC(=S)Nc1cc(C(F)(F)F)cc(C(F)(F)F)c1,6.84 µM,2.47 µM
Nc1ccc2c(c1)nc1n2C(c2c(F)cccc2F)SC1 (stereo not drawn),> 100 µM,
CC(=O)OCC(=O)O[C@@H]1[C@H]2[C@@H](OC(=O)c3ccccc3)[C@@H](C)C[C@]2(O)[C@H](OC(C)=O)[C@@]2(C)C(OC(C)=O)[C@]1(OC(C)=O)C[C@H]1C(=O)C(C)(C)C[C@@H]12 (stereo partly drawn),> 50 µM,
Cc1ccccc1NC(=O)C(=O)C(C#N)c1ccccc1C (stereo not drawn),> 100 µM,
[O-]c1c2cc(-[n+]3c(-c4ccccc4)cc(-c4ccccc4)cc3-c3ccccc3)cc1COCCOCCOCCOCCOC2,> 100 µM,
O=[N+]([O-])c1ccc(-c2nc3ccc(Cl)cc3[nH]2)cc1,> 100 µM,
CCOC(=O)c1sc2nc(SC)nc3c2c1NCN3c1ccc2c(c1)OCO2,> 100 µM,
Cc1cc(C)nc(NS(=O)(=O)c2ccc(NC(=O)c3cccc4c(Nc5ccc(S(=O)(=O)Nc6cc(C)on6)cc5)c5ccccc5nc34)cc2)n1,37.7 µM,
COc1ccc(-c2nc(/C=C3\SC(=NCc4ccccc4)NC3=O)c3ccccn23)cc1,3.81 µM,1.42 µM
CCCCc1ccc(-n2sc3ncc(C)cc3c2=O)cc1,> 100 µM,
